Assay results as given in the RNAGym collection of RNA variant scans (doi:10.7554/elife.90254).
Read counts are not given, so values of variants with three or more changes are uncertain.

B1: LINE1-mini (parent)
chain: GGCAGAGCUCAACACAGCGUGGCAAAGUGGCUGUGGCUAGACUGCC

Variants of: B1
Assay: self-cleavage, relative activity (ratio to wild type); higher = more cleavage; in vitro, sequencing; the parent is a self-cleaving ribozyme
GACAGAGCUCAACACAGCGUCUCAAACUGGCUGUGGCUAAACUGCC [G2A G21C G22U G27C G40A] gave a self-cleavage of 0.15.
In the case of GACAAAACUUAACACAGCGUGGCAAAGGGGCUGUGGCUAGACUGGC [G2A G5A G7A C10U U28G C45G], the self-cleavage is reported as 0.19.
GACAGAUCUCAACACAGCGUGACAGAGUGGCUGUGGCUAGACUGCC [G2A G7U G22A A25G] showed a self-cleavage of 0.17.
With GACAGACGUCAACACAGCGCGGCAAAGUGGCUGUGGCUACACUACC [G2A G7C C8G U20C G40C G44A] the self-cleavage was 0.07.
In the case of GACAGAACUCAACACAGCGUGGCAAAGUUGCUGGGAAUAGACUGCC [G2A G7A G29U U34G G36A C37A], the self-cleavage is reported as 0.02.
With GACAGAGCACAACACCGCGUGACAAAGUGGCUGUGACUAGACUGCC [G2A U9A A16C G22A G36A] the self-cleavage was 0.17.
Work on GACAGAGCUCAACACAGCGUGGCAAAGUGGCUUUGGCUGGACUGCC [G2A G33U A39G] yielded a self-cleavage of 0.49.
In the case of GACAGAGCUCAACACAGCGCGGCAAAGUGUCUGUGGCUAGACUGCC [G2A U20C G30U], the self-cleavage is reported as 0.21.
Variant GACAGAGCUCAACACAGUGUGGUAUAGUGGCUGUGGCUAGACUGCC [G2A C18U C23U A25U] has a self-cleavage of 0.1.
GACAGAUCUCAACACAGCGUGGCAAAGUGGCUGUGGCUAGAUUGUC [G2A G7U C42U C45U] showed a self-cleavage of 0.02.
Variant GACAGAGCUCAACACAGCGUGGCAAAGUAGCUGUGCCUAGACUGCA [G2A G29A G36C C46A] has a self-cleavage of 0.04.
Work on GACAGAGCGCAACACAGCGUGGCAAAGUGGCUGUGGCUAGUCUGCC [G2A U9G A41U] yielded a self-cleavage of 0.22.
GACAGAGCACAACACAUCGUAGAAAAGUGCUUGUGGCUAGACUGCC [G2A U9A G17U G21A C23A G30C C31U] gave a self-cleavage of 0.01.
With GACAGAGCUCAACACAGUCUGGCAAAGUGGCUGUGGCUAGACUGGC [G2A C18U G19C C45G] the self-cleavage was 0.03.
For GACACAGUUCAGCACAGCGUGGAAAAGUGGCUGUGGCUAGACUGCC [G2A G5C C8U A12G C23A], the self-cleavage was 0.03.
GACAGAGCUCAACACAGCGUUGCAAAGUGGCUGUGGCCCUACUGCC [G2A G21U U38C A39C G40U] showed a self-cleavage of 0.07.
GACAGAGCUCAACACAGCGUUGCAAAGAGGCUGUGGCGAGACUGCC [G2A G21U U28A U38G] gave a self-cleavage of 0.01.
GACAGAAAUCAACCCAGCGUGGCAAAGUGGCUGUGGGAAGACUCCC [G2A G7A C8A A14C C37G U38A G44C] showed a self-cleavage of 0.15.
For GACAGAGCUCAACACAGCGUGGCAAAAAGGCUGAGGCUAGCCUGCC [G2A G27A U28A U34A A41C], the self-cleavage was 0.01.
For GACAUAGCUCAAUACAGCGUGGCAAAGUGAUUGUGGCUAGAUUGGC [G2A G5U C13U G30A C31U C42U C45G], the self-cleavage was 0.09.
Variant GACAGAGCUCAACACAGCGUGGCAAAGUUGCUGUGGAUAGACUGCC [G2A G29U C37A] has a self-cleavage of 0.46.
For GACAGAGCUCAACACAGCGUGGCAAAGUGGUUGUGGGUACACUGCC [G2A C31U C37G G40C], the self-cleavage was 0.04.
GACAGAGCUCAACACAGCGUGGCAAAUUGGCUGUGGCUUGACUGCC [G2A G27U A39U] gave a self-cleavage of 0.14.
GACAGAGCCCCAAUCAGCGUGGCAAGGUGGCUGUGGGUAGACUGCC [G2A U9C A11C C13A A14U A26G C37G] showed a self-cleavage of 0.03.
GACAGAGCGCAACACAGCGUGGCAAAGUGGCUGAGGCUACACUGCC [G2A U9G U34A G40C] gave a self-cleavage of 0.03.
In the case of GACAGAGCUCAACACAGCAUGGCAAAGUGGCUGUGGCUAGAUAGCC [G2A G19A C42U U43A], the self-cleavage is reported as 0.11.
In the case of GACACAGCUCAACACAGCGUGUCGAAGGGGCUGUGGCUAUACUGCC [G2A G5C G22U A24G U28G G40U], the self-cleavage is reported as 0.01.
With GACAGAACUCAACACAGCGUGGCUAAGUGGCUGUGGCUAGACUGCC [G2A G7A A24U] the self-cleavage was 1.49.
In the case of GACAGAUCUCAACACAGCGUGGUAAAGCGGCUGUGGCUAGACUGCC [G2A G7U C23U U28C], the self-cleavage is reported as 0.02.
In the case of GACAGAGCUCAACACAUCGUGGCAAAGUUGCUGUGGCUAGACUGCC [G2A G17U G29U], the self-cleavage is reported as 0.19.
In the case of GACAGAGCUCAACACAACGUGGCAAAGUGGCCGUGGCUAGAAUGCC [G2A G17A U32C C42A], the self-cleavage is reported as 0.01.
With GACAUAGCUCAACACAGCGUCACAAACUGGCUGUGGCUAGACUGCC [G2A G5U G21C G22A G27C] the self-cleavage was 0.38.
With GACAGAGCUCAACACACCGUGGAAAAGUGGCUGUGGCUAGACUGCG [G2A G17C C23A C46G] the self-cleavage was 0.27.
For GACAGAGCUCAACACAGCGUGGCAAAGUGGCUUGGGCUAUACUGCC [G2A G33U U34G G40U], the self-cleavage was 0.22.
GACAGACCUCAACACAGCGUGGCAAAGUGGCUGUAGCUAGACUGCC [G2A G7C G35A] gave a self-cleavage of 0.1.
In the case of GACAGAGCUCAACACAGCGUAGCGAAGUGGCUGUGGCUAGACUGCC [G2A G21A A24G], the self-cleavage is reported as 1.24.
With GACAAAGCUUAACACAGCGUGGCAAAGUGGCUGUGGCUAGAAUGCC [G2A G5A C10U C42A] the self-cleavage was 0.06.
Work on GACAGAGCUCAACACAGCGUGGCAAAGUGGCUGUGACUAGACAGCC [G2A G36A U43A] yielded a self-cleavage of 0.04.
GACAAAGCUCAACACAGCGUGGCUAAGUGGCUGUGCCUAGACUGCC [G2A G5A A24U G36C] showed a self-cleavage of 1.89.
GACAGAGCUCAACACAGCGUGGCAAAGUGGCUGUGGGUAGACUGCA [G2A C37G C46A] showed a self-cleavage of 0.09.
For GACAGAACUCAACACAGCGUCUCAAAGUCGCUGUGGCUAGACUGAC [G2A G7A G21C G22U G29C C45A], the self-cleavage was 0.36.
GACAUAGCUCAACACAGCGUGGCAAAGUGGCCGUGGCUAGACUGCC [G2A G5U U32C] gave a self-cleavage of 0.06.
Variant GACAGAGCUCAACACAGCGUGGCAAAGUGGCUAUAUAUAGACUGCC [G2A G33A G35A G36U C37A] has a self-cleavage of 0.27.
Variant GACAGAGCUCAACACAGCGUCGGACAGUGGCUGUGGCUAGACUGCG [G2A G21C C23G A25C C46G] has a self-cleavage of 0.61.
In the case of GACAGAGCUCAACACAUCAUGGCAAAGUGGCUGUGUCUAGACUGCC [G2A G17U G19A G36U], the self-cleavage is reported as 0.04.
GACAGAGCUCAACACAGCCUGGCAAAGUGGCUGUGGCUAGAAUGCC [G2A G19C C42A] showed a self-cleavage of 0.06.
GACAGAGCUCAACACAGUGUGGCAAAGAGGCUGUGGCUAGACUGCC [G2A C18U U28A] showed a self-cleavage of 0.25.
Variant GACAGAGCUCAACACAGGGUGGCAAAGUGGCUGUGGCUCGACUCCC [G2A C18G A39C G44C] has a self-cleavage of 0.02.
GACAGAGCUCAACACACAGUGGCAAAGUGGCUGUGGCUAGAAUGCC [G2A G17C C18A C42A] showed a self-cleavage of 0.09.
For GACAUAUCUCAACAUAGCGUGGCAAAGUGACUGUGGCUAGACUGCC [G2A G5U G7U C15U G30A], the self-cleavage was 0.08.
With GACAGACCUCUACACAGCGUGGCAAAGUGCCUGUCGCUAGACAGCC [G2A G7C A11U G30C G35C U43A] the self-cleavage was 0.02.
Work on GACAGAGCUCAACACAGCGUGGCAAAGUGGUCGUGUCGAGAGAGCC [G2A C31U U32C G36U U38G C42G U43A] yielded a self-cleavage of 0.11.
GACAAAGCUCAACACAGCGUGGCAAAGUGGCUGUGGAUAGAAUGCC [G2A G5A C37A C42A] showed a self-cleavage of 0.48.
GACAGAGCUCAACACAGCGUGGCAAAGUGGCUGUGUCUAGACCCCC [G2A G36U U43C G44C] showed a self-cleavage of 0.03.
GACAGAGCUCAACACAGCGCGGCAAAGUGGCUGUGGAUAGACUGCC [G2A U20C C37A] showed a self-cleavage of 0.11.
For GACAGAACUCAACACAGCCUGGCAAAGCGGCUGUGGCUAGACUGCC [G2A G7A G19C U28C], the self-cleavage was 0.08.
